The whole screen tested about 1,100 compounds, of which about 70 (6%) were called active. About 22% were inconclusive and are not listed. Calls come from the whole dose curve; as a rule, active = well fitted curve in the direction sought with a large enough effect; inconclusive = small, poorly fitted or top-dose-only effect, or another doubt; inactive = no such curve, though single readings can be large or run the other way. The list shows a part of the results.
% is set by controls: 0 for no effect and ±100 for the full control effect; potency is the fitted concentration of half-maximal effect.

Sequence of UniProt P18054 (P18054 whole entry, looked up): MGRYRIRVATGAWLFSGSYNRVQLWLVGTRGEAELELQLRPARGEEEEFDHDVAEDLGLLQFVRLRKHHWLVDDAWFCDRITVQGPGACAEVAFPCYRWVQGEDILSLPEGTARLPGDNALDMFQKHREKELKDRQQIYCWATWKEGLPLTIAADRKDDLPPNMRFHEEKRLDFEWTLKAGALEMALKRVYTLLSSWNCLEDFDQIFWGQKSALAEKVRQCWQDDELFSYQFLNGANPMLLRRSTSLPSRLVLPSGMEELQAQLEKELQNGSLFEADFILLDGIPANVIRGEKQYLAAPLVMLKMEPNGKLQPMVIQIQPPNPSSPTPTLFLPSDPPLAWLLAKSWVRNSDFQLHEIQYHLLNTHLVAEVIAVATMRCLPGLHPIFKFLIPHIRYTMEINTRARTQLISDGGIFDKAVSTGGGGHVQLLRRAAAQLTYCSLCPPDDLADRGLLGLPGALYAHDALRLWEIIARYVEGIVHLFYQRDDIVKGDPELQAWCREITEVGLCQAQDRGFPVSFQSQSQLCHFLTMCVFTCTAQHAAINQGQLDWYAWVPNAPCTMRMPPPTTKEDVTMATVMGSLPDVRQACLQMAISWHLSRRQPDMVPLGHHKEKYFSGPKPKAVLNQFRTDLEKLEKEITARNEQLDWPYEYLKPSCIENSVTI

This assay concerns the target Polyunsaturated fatty acid lipoxygenase ALOX12 (Homo sapiens) (UniProt P18054). As to the kind of experiment: Confirmatory qHTS assay for inhibitors of human arachidonate 12S-lipoxygenase (ALOX12): Round 2. To be noted: purified human 12-LOX, xylenol orange absorbance; series mostly up to 125 µM; activity change, negative = inhibition: at the top concentration. From the text:
Assay Provider: Theodore R. Holman Ph.D. University of California, Santa Cruz, California Human lipoxygenase 12hLO is a member of the closely related lipoxygenase family of enzymes which catalyze the site-specific oxidation of arachidonic acid to various hormone precursor molecules and as such is a candidate for drug development in a variety of disease areas, such as cancer and inflammation. Inhibition of 12hLO activity was screened by utilizing arachidonic acid as a substrate. The extent of hydroperoxide product formation was measured by a secondary chromogenic reaction in which xylenol orange (XO, Sigma-Aldrich, cat. number 39,818-7) reacts with the ferric ions produced from the reaction between the hydroperoxide and ferrous ions. The Fe (III)-XO complex is characterized with red-shifted absorbance at 560 nm. A purified preparation of human 12hLO was supplied by Dr. Holman laboratory, University of California, Santa Cruz.
PROTOCOL TABLE SEQUENCE No. (e.g., 1, 2, 3, etc.); […] (e.g., Cells, Incubation, Reagent, etc.); VALUE; DESCRIPTION 1; Enzyme; 3 uL; 150 nM 12hLO enzyme solution dispensed in 1536-well Greiner black, clear bottom plates. 2; Compound; 23 nL; compounds and controls were added. 3; Incubate; 15 min; room temperature. 4; Substrate; 1 uL; 40 uM arachidonic acid (final concentration). 5; Incubate; 30 min; room temperature. 6; Reagent; 4 uL; Fe-XO solution was added to each well. 7; Incubation; 30 min; room temperature 8; Detector; absorbance; Read 1 at 405 nm absorbance using ViewLux (PerkinElmer) CCD imager. 9; Detector; absorbance; Read 2 at 573 nm absorbance using ViewLux (PerkinElmer) CCD imager. NOTES (numbers refer to sequence above) 1; 150 nM 12hLO (final concentration) in buffer solution (25 mM Hepes, 0.01% Triton X-100, pH 7.0) was dispensed in columns 1, 2, 5-48. Column 1 is neutral (100% activity). Buffer only was dispensed in columns 3 and 4 as no enzyme negative controls. The plates were covered with metal lids with gas-exchange holes. 2; Compounds were pin transferred via a Kalypsys Pin Tool (Wako USA) in column 5 - 48. Control compound was transferred in column 2, titration of nordihydroguaiaretic acid (NDGA, Sigma-Aldrich, N5023) with top concentration of 20 mM in DMSO then 1:3 dilution in duplicate. Dilution factor of 23 nL into 4 uL final assay volume. 3; Covered assay plates were incubated for 15 min at room temperature. 4; Substrate was added to start the reaction; 40 uM arachidonic acid (Sigma-Aldrich, St. Louis, MO) was dispensed throughout the plate. 6; Chromogenic detection reagent solution (divalent iron/xylenol orange, Fe-XO) was added to each well: 200 uM xylenol orange, 300 uM ferrous ammonium sulfate prepared freshly in 50 mM sulfuric acid. 8, 9; Two absorbance readouts were obtained at 405 nm and at 573 nm using a ViewLux high-throughput CCD plate imager (PerkinElmer). The 573 to 405 (Read 2 / Read 1) absorbance ratio was used to compute reaction progress.
For `CN1CC(=O)N(C2CCCNCC2)Cc2c(NCC(C)(C)C)ncnc21` (stereo unspecified), the “activity change, negative = inhibition” value is inactive: 0.649%.
Regarding `CC(C)CCN1CCn2c(nn(-c3ccc(Cl)cc3)c2=O)C1`, the “activity change, negative = inhibition” value was inactive: -11.1%.
`COc1ccc(-n2cc(-c3ccnc(NCCC4CCCN4C)n3)cn2)cc1` (stereo unspecified): the “activity change, negative = inhibition” value is inactive: -14.8% [at 64.5 µM].
Consider `COCc1nc(C2CC(N)C2)cc(N2CCC3(CC2)CNC(=O)O3)n1` (stereo unspecified), for which the “activity change, negative = inhibition” value is inactive: -10.8% [at 64.5 µM].
Take `O=[S+]([O-])(c1ccncc1)c1nnn2c1nc(NCc1ccc(F)cc1)c1ccccc12`: the “activity change, negative = inhibition” value was inactive: -10%.
Turning to `Cn1nc(C2CCCN2)c2c(C(=O)NCc3ccc(F)cc3)cc(C3CC3)nc21` (stereo unspecified), the “activity change, negative = inhibition” value is inactive: -19.8%.
Still for that read-out and setting: to `O=C(OCC#CCSc1nnc(-c2cccc3ccccc23)o1)c1sccc1Cl` belongs inactive: 8.4% [at 64.5 µM].
On to `OC1(CN2CCN(c3nccs3)CC2)CCCNC1` (stereo unspecified), for which the “activity change, negative = inhibition” value is inactive: -6.16% [at 64.5 µM].
Take `CNC(C)c1ccc(Oc2ccccc2)cc1` (stereo unspecified): the “activity change, negative = inhibition” value is inactive: -25.5%.
For the compound `NCc1cccc(-c2ccccc2F)c1`, the “activity change, negative = inhibition” value was inactive: -2.12%.
Regarding `CSc1ccc(-c2ccc(C=O)cc2)cc1`, the “activity change, negative = inhibition” value is inactive: -29.7% [at 233 µM].
For the compound `CCOCCNc1ncnc2c1CN(C1CCCNCC1)C(=O)CN2C` (stereo unspecified), the “activity change, negative = inhibition” value was inactive: -8.97%.
The same measure, in the same setting: in the case of `CNC1CCOc2ccccc21` (stereo unspecified) it was inactive: -10.9%; in that of `CCc1cccc(C)c1NC(=O)C(CC)Sc1nc2ccncc2[nH]1` (stereo unspecified), inactive: 2.01%.
With `O=C1NCCN1C1CCN(Cc2ccc(F)cc2)CC1`, the “activity change, negative = inhibition” value is inactive: -13.2%.
Regarding `CN1CC(=O)N(C2CCNCC2)Cc2c(NCC3CCCCC3)ncnc21`, the “activity change, negative = inhibition” value was inactive: -21.1%.
With `O=C(NC1CC1)c1cc(-c2ccccc2C(F)(F)F)nc2onc(C3CCNC3)c12` (stereo unspecified), the “activity change, negative = inhibition” value was inactive: -24.9%.
Same read-out and setting: to `CN(C)CCC(=O)N1Cc2ccccc2CC2(CCCN(C)C2)C1` (stereo unspecified) belongs inactive: 11.5%.
`Nc1cc(-c2ccccc2)ccc1O`: the Potency is active: 273 nM.
Consider `Cc1cc(C)cc(-c2ccc(CN3CCCC(c4nc5ccc(F)cc5c(=O)[nH]4)C3)cc2)c1` (stereo unspecified), for which the “activity change, negative = inhibition” value was inactive: -20.9%.
`CC(=O)NCCC(=O)N1Cc2ccccc2CC2(CCN(CC3CCNC3)CC2)C1` (stereo unspecified): the “activity change, negative = inhibition” value was inactive: -10.6%.
Regarding `CN1CC(=O)N(C2CCC2)Cc2c(NC3CCNCC3)ncnc21`, the “activity change, negative = inhibition” value was inactive: -10.6%.
On to `COCC(C)NC(=O)c1csc2nc(-c3cccc(C(F)(F)F)c3)cn12` (stereo unspecified), for which the “activity change, negative = inhibition” value is inactive: -3.92% [at 64.5 µM].
For the compound `NCc1ccc(-c2cc(C(F)(F)F)ccc2Cl)cc1`, the “activity change, negative = inhibition” value is inactive: -18.7%.
`O=C(O)CCC(=O)N1Cc2ccccc2CC2(CCCN2Cc2ccccc2)C1` (stereo unspecified): the “activity change, negative = inhibition” value is inactive: -16.3%.
For `O=c1[nH]c(C2CCN(Cc3ccc(-c4cccnc4)cc3)CC2)nc2ccc(F)cc12`, the “activity change, negative = inhibition” value is inactive: -14.8%.
For the compound `O=C(c1cc(-c2ccco2)nn1-c1cccc(Cl)c1)N1CCCCC1`, the Potency was active: 9680 nM.
Regarding `O=C1NCc2ccccc2CC12CCN(Cc1ccccc1OC(F)(F)F)C2` (stereo unspecified), the “activity change, negative = inhibition” value is inactive: -19.4%.
On to `CC(=O)NCc1cc(Cl)c2cccnc2c1O`, for which the Potency is active: 1930 nM.
For `Cc1noc(C)c1C(=O)N1Cc2ccccc2CC2(CCN(CC3CCNCC3)C2)C1` (stereo unspecified), the “activity change, negative = inhibition” value is inactive: -7.04%.
Still for that read-out and setting: to `COc1ccc(N2CCN(CC(O)COc3ccc(C(C)(C)C)cc3)CC2)cc1` (stereo unspecified) belongs inactive: -5.35%.
The same measure, in the same setting: in the case of `COc1cccc(N2C(=O)NC(=NC3CCCCC3)C23CCCN([S+](=O)([O-])c2cccc(C(F)(F)F)c2)C3)c1` (stereo unspecified) it was inactive: -19.8%.
With `Cc1cc(C)n(CC2(Cn3cc(C4CCCNC4)nn3)CC2)n1` (stereo unspecified), the “activity change, negative = inhibition” value was inactive: -6.78% [at 64.5 µM].
The same measure, in the same setting: in the case of `CN1CC(=O)N(C2CCNC2)Cc2c(NC3CCCCCC3)ncnc21` (stereo unspecified) it was inactive: -10.2%; in that of `CCN(CC)CCOc1ccc2c(c1)C(=O)c1cc(OCCN(CC)CC)ccc1-2`, inactive: -12%; in that of `CC(C)(N)C(=O)N1CCCC(N2CCN(Cc3ccc4c(c3)OCO4)CC2)C1` (stereo unspecified), inactive: -16% [at 64.5 µM].
With `CCCCN1C(=O)[C@@H]2C[C@@H](O)CN2C2(CN(Cc3cnc[nH]3)C2)C1=O`, the “activity change, negative = inhibition” value was inactive: 16.1% [at 64.5 µM].
On to `Cc1ccc2c(c1)nc1n2[C@@H](CNCc2ccccc2)COC1`, for which the “activity change, negative = inhibition” value is inactive: -0.215% [at 64.5 µM].
Regarding `C[C@H](C(=O)N1Cc2ccccc2CC2(CCN(C)C2)C1)c1ccccc1` (stereo partly specified), the “activity change, negative = inhibition” value was inactive: -12.6%.
For the compound `CC(CO)Nc1ncnc2c1CN(C1CCCNCC1)C(=O)CN2C` (stereo unspecified), the “activity change, negative = inhibition” value was inactive: -8.62%.
Consider `O=C1Nc2ccccc2CNC12CCN(CC1CCNC1)CC2` (stereo unspecified), for which the “activity change, negative = inhibition” value was inactive: -13.5%.
For the compound `COc1ccc(C(=O)N2CCOC[C@H](Oc3cccnc3)C2)cc1`, the “activity change, negative = inhibition” value was inactive: 23.1% [at 64.5 µM].
For the compound `c1cncc(CN2CCn3c(nnc3C3CCCNC3)C2)c1` (stereo unspecified), the “activity change, negative = inhibition” value was inactive: -15.9%.
As to `O=C1NCc2ccccc2CC12CCN(Cc1cnc3ccccc3c1)CC2`, the “activity change, negative = inhibition” value was inactive: -27.7%.
Turning to `CC(=O)N1CCN(c2ncnc3c2CN(C2CCCNCC2)C(=O)CN3C)CC1` (stereo unspecified), the “activity change, negative = inhibition” value was inactive: 5.14%.
Turning to `CN(C)C(=O)c1c[nH]c2cccnc12`, the “activity change, negative = inhibition” value is inactive: 1.15% [at 233 µM].
With `CCn1cnnc1CC1CCCNC1` (stereo unspecified), the “activity change, negative = inhibition” value was inactive: -10.2% [at 64.5 µM].
As to `NCC(=O)N1Cc2ccccc2CC12CCCN(C(=O)c1ccccc1)C2` (stereo unspecified), the “activity change, negative = inhibition” value was inactive: 0.616%.
On the same count and under the same terms, to `CN(C)CCNC(=O)c1cc2n(n1)CCCN(C(=O)[C@@H]1CCCN1)C2` belongs inactive: -7.18% [at 64.5 µM].
For the compound `COC[C@@H]1CCCN1c1ncnc2c1CN(C1CCNC1)C(=O)CN2C` (stereo partly specified), the “activity change, negative = inhibition” value was inactive: 23%.
Take `Cc1ccc(CN2CCCC23Cc2ccccc2CNC3=O)cc1` (stereo unspecified): the “activity change, negative = inhibition” value is inactive: -19.1%.
Regarding `O=C(O)CCCC(=O)N1Cc2ccccc2CC2(CCCN(Cc3ccncc3)C2)C1` (stereo unspecified), the “activity change, negative = inhibition” value is inactive: -7.61%.
With `COC[C@@H]1CCCN1c1ncnc2c1CN(C1CCCNCC1)C(=O)CN2C` (stereo partly specified), the “activity change, negative = inhibition” value was inactive: -20.5%.
Take `CN1CC(=O)N(C2CCCNCC2)Cc2c1ncnc2N1CCc2ccccc2C1` (stereo unspecified): the “activity change, negative = inhibition” value is inactive: -7.62%.
`CCC(=O)NC(c1ccco1)c1cc(Cl)c2cccnc2c1O` (stereo unspecified): the Potency is active: 2170 nM.
`CCOC(=O)Cn1c(=O)n(-c2ccccc2OC)c2nc(-c3cccc(F)c3)nc(C(N)=O)c21`: the Potency is active: 4400 nM.
With `O=C(N1CCOCC1)N1CCC(c2nnc3n2CCNC3)CC1`, the “activity change, negative = inhibition” value was inactive: -2.44%.
Consider `CC(C)CCN1CCC2(C1)C(=O)N(c1ccccc1)c1ccccc12` (stereo unspecified), for which the “activity change, negative = inhibition” value is inactive: -13.1%.
With `CN1CC(=O)N(C2CCNCC2)Cc2c(NCCOc3ccccc3)ncnc21`, the “activity change, negative = inhibition” value is inactive: -11.1%.
Consider `O=C(c1cc(C2CC2)nc2onc(C3CCCN3)c12)N1CCC(F)CC1` (stereo unspecified), for which the “activity change, negative = inhibition” value is inactive: -12.7%.
For `CNCc1ccccc1Cl`, the “activity change, negative = inhibition” value is inactive: -9.03% [at 233 µM].
For the compound `CO[C@H]1C(=O)N(C2CCN(C(=O)c3cccc4[nH]ccc34)CC2)[C@H]1c1ccncc1`, the “activity change, negative = inhibition” value was inactive: -11.8% [at 64.5 µM].
Still for that read-out and setting: in the case of `CN1CC(=O)N(C2CCCNCC2)Cc2c(NCCO)ncnc21` (stereo unspecified) it was inactive: -8.04%; in that of `COc1ccc(CN2CCCCC23Cc2ccccc2CNC3=O)c(OC)c1` (stereo unspecified), inactive: -10.6%; in that of `O=C1NC(=NC2CCCC2)C2(CCN(CC3CCCCC3)CC2)N1c1cc(F)cc(F)c1`, inactive: -13.5%.
Take `NCCC(=O)N1CCCC2(Cc3ccccc3CN2C(=O)c2ccccc2)C1` (stereo unspecified): the “activity change, negative = inhibition” value was inactive: -2.46%.
As for `COCCCN1C(=O)N(Cc2nncn2C(C)C)C(=O)C12CCNCC2`, the “activity change, negative = inhibition” value was inactive: -11.6% [at 64.5 µM].
Turning to `O=C1NCc2ccccc2CC12CCCN2Cc1ccccc1Cl` (stereo unspecified), the “activity change, negative = inhibition” value is inactive: -6.54%.
Take `O=C(N1CCOCC1)N1CCN(c2ccc(Cl)nn2)C(=O)C1`: the “activity change, negative = inhibition” value was inactive: -15.4%.
As for `COCCNC(=O)c1cc(-c2ccc(OC)cc2)nc2onc(C3CCCN3)c12` (stereo unspecified), the “activity change, negative = inhibition” value is inactive: -22.6%.
As to `COc1cccc(-c2ccc(CN3C4CCC3CN(C(=O)Nc3ccccc3F)C4)cc2)c1`, the “activity change, negative = inhibition” value is inactive: -25.4%.

Values taken from PubChem BioAssay AID1671189 (National Center for Advancing Translational Sciences (NCATS), 2021).
